The other results are listed elsewhere or left out.
B1: ENSG00000198589:be:win_2601|CDS|ENSG00000198589|bound_else_gene|NA|bound_elsewhere_windowed (ssRNA)
RNA: GGGAGUUCUACAGUCCGACGAUCAGAAUGGAUGCUUUCUCUCUGCUAUUUUAAUCCUAAGAAUUCAGAUGAGCAAAAGAUAACAGAAAUGGUAUACGCCAUAUUCAGAAUCCUGCUUUACCAUGCAGUCAAAUAUGAGUGGGGCAACAGAGGAUUGAGCAUCA
B2: chr19:5611119:5611630:-|CDS|ENSG00000130254|control|control|control (ssRNA)
RNA: GGGAGUUCUACAGUCCGACGAUCGCCUCUAGCGAGGAGCUCGCAGAAGCACCCACGGAAGCCCCAAGCCCAGAAGCCAGAGAUAGCAAAGAAGACGGGAGGAAGUUUGAUUUUGACGCUUGUAAUGAAGUCCCUCCGGCUCCUCAACAGAGGAUUGAGCAUCA
B3: chr17:15229982:15230086:-|3pUTR|ENSG00000109099|msi1_unk|FALSE|overlapping (ssRNA)
RNA: GGGAGUUCUACAGUCCGACGAUCUCAUAAAGCCUUCAUCACUCCCACAUUUUUCUUACGGUCGGAGCAUCAGAACAAGCGUCUAGACUCCUUGGGACCGUGAGUUCCUAGAGCUUGGCUGGGUCUAGGCUGUUCUGUGCCUCCCAACAGAGGAUUGAGCAUCA
B4: chr15:38485071:38485172:+|3pUTR|ENSG00000171262|unk|FALSE|unique (ssRNA)
RNA: GGGAGUUCUACAGUCCGACGAUCUUGCCUCACCUGUAUUGCUGUGGAUGUGUUUUGUGGGUUUUUCAUUCGAUUUUACAAAAUAGGGAAAGGCACUUCCAGUUGUAUUUAGUAGGCAGUUGUUGUGAAUCAUUUUUUUCUCUUCAACAGAGGAUUGAGCAUCA
B5: ENSG00000070961:be:win_4251|3pUTR|ENSG00000070961|bound_else_gene|NA|bound_elsewhere_windowed (ssRNA)
RNA: GGGAGUUCUACAGUCCGACGAUCGUACUAAAUUUUUGCCUACAAUUUACCUUGUUAAAUAUUGUAGAUAAAUUGCUAAUACUAAUAGCCAAAUAGAUAACACUAAUGCUUUGUUUAAAAAAACGAAAAAAACAAAACAAAACACAACAGAGGAUUGAGCAUCA
B6: chr1:28742582:28742694:+|CDS|ENSG00000198492|unk|total|mutant (ssRNA)
RNA: GGGAGUUCUACAGUCCGACGAUCAGCAACGGAGAGCCCCACUUCCUACCAGAUGCAAUGUUUGGGCAACCAGGAGCCCCCGGCCGCACUCCAUUUCUUGGUCAGCAUGGUUUUAAUUUCUUUCCCAGUGGGAUUGACUUCUCACAACAGAGGAUUGAGCAUCA
B7: chr19:39385628:39385990:-|three_prime_utr|ENSG00000006712|control|control|control (ssRNA)
RNA: GGGAGUUCUACAGUCCGACGAUCGUCCCAGGGCAUUCAGGGCUGGUUCAGACACCAUUAUUGUGAGCAGCAAAGCACUUUUCUAGUGGUCUGUUUGUGAGCCUUUCACUUGUUUGUUCCCCACCCCCAAACCUUUGCUGUUAACAACAGAGGAUUGAGCAUCA
B8: chr5:82277714:82277885:-|CDS|ENSG00000186468|unk|total|mutant (ssRNA)
RNA: GGGAGUUCUACAGUCCGACGAUCAACUAAAAUAUUUAAUUUUCCGGCAAGUGUCGUGGACUUCGUACUGCCCGGAAGCUCCGCCGUCACCGACGAGACCAGAAGUGGCAUGAUAAACAGUAUAAGAAAGCUCAUUUGGGCACACAACAGAGGAUUGAGCAUCA
B9: chr1:193029531:193029688:-|CDS|ENSG00000116750|unk|FALSE|unique (ssRNA)
RNA: GGGAGUUCUACAGUCCGACGAUCUUGAUAUCUUCACUUUUAUAUUUUAUAGGUAAUUAAUAAUGCUUGUGCUACUCAAGCCAUAGUGAGUGUGUUACUGAACUGUACCCACCAGGAUGUCCAUUUAGGCGAGACAUUAUCAGACAACAGAGGAUUGAGCAUCA
B10: chr1:42176760:42176861:-|3pUTR|ENSG00000198815|msi1|FALSE|bound_elsewhere (ssRNA)
RNA: GGGAGUUCUACAGUCCGACGAUCGUCGCUCAGAUGUCCUUUGAAGUGGGAGGGAAUCAAUCCGGGGAUAAUUUCAAAUGGAAUAGAGUAUUUUGAUAUUGUUCAUUCAGAGGGUGAUGUGUACAUAUCUAUAUUGUAUAUAUGCAACAGAGGAUUGAGCAUCA
B11: chr19:2853326:2853433:+|CDS|ENSG00000186300|unk|total|mutant (ssRNA)
RNA: GGGAGUUCUACAGUCCGACGAUCCAAUGUGGGAAAACUUUCAAUUGGCCCAUAUCUUUACGAAAACAUAUGAGAACACAUACCCGAGAGAAACCCUAUGAAUGUAAGCAGUGUGGGAAAGCCUUCAGCUUGUCUGCUUGCUUUCAACAGAGGAUUGAGCAUCA
B12: chr5:75599425:75599511:+|3pUTR|ENSG00000122008|msi1_unk|FALSE|overlapping (ssRNA)
RNA: GGGAGUUCUACAGUCCGACGAUCGAAUAGCUUAAUUAAGAACUCACAGACUUUGACAAAGUGGUAACUAGACUUUUAAUUACUAGAUUCUUCAAAUUAGGCUUAAUGCCUGCUAGCAUGCCAAUCCAAUCCCAUGACUGAUGUCAACAGAGGAUUGAGCAUCA
B13: chr19:35623844:35623945:+|3pUTR|ENSG00000249115|unk|FALSE|unique (ssRNA)
RNA: GGGAGUUCUACAGUCCGACGAUCUGUGUCAAGAGCAGCGGCGGUGACGCAGGUGUAGAGAUUUGUCAGAGCUCAUGUAGUUGUAGUCUUAAGGCCUGUGCAUUUCACUGCGUGGGUUACUCAAUUUAUAAAGCAAAGCCCUUACAACAGAGGAUUGAGCAUCA
B14: chr12:122341087:122341188:-|CDS|ENSG00000130779|unk|FALSE|bound_elsewhere (ssRNA)
RNA: GGGAGUUCUACAGUCCGACGAUCAGAAUUUGCUGAACUAAAAACACAAAUAGAGAAAAUGAGACUAGAUUACCAACACGAAAUAGAAAAUUUGCAGAAUCAACAAGACUCUGAACGGGCUGCCCAUGCUAAAGAGAUGGAAGCCAACAGAGGAUUGAGCAUCA
B15: chr3:52707940:52708050:+|3pUTR|ENSG00000114902|msi1_unk|FALSE|overlapping (ssRNA)
RNA: GGGAGUUCUACAGUCCGACGAUCUUUAGUUCUCUUUAUACUUCAUUUCUAGCCCAGUUGGGUUUUGAUUUAUAUAAGUAGUUUAGACCUUCUCUUCAUAAUCUUGCUCUGAGAUGGGGAACAGAACACACAAGUAUGAAGUUUCAACAGAGGAUUGAGCAUCA
B16: chr16:1943973:1944836:-|three_prime_utr|ENSG00000140986|control|control|control (ssRNA)
RNA: GGGAGUUCUACAGUCCGACGAUCUUCCUGCGAGGUCUCAGAGCGCUGUGUAACCGCCCAAGGGGUUCACCUUGCCUGCUGCCUAGACAAAGCCGAUUCAUUAAGACAGGGGAAUUGCAAUAGAGAAAGAGUAAUUCACACAGACAACAGAGGAUUGAGCAUCA
B17: chr3:193274788:193275041:-|three_prime_utr|ENSG00000187527|control|control|control (ssRNA)
RNA: GGGAGUUCUACAGUCCGACGAUCUCUCCAUUCAAGCAUUCAAAGUAUAUUUUCAAUGAAUUAAACCUUGCAGCAAGGGACCUUAGAUAGGCUUAUUCUGACUGUAUGCUUUACCAAUGAGAGAAAAAAAUGCAUUUCCUGUAUCAACAGAGGAUUGAGCAUCA
B18: chr7:123541454:123541562:-|3pUTR|ENSG00000128609|unk|total|mutant (ssRNA)
RNA: GGGAGUUCUACAGUCCGACGAUCUCCACCGUGUCAUUUUAUUUCCGUCAUUAUUGAAUUAUACCAUUUACUCUGUUUUCUUACCGUCUUAAUUUUAUUAUAUUUUGUUGUUACUGUAUUAUAUUUGAAAACCUUCAAAUCCGACAACAGAGGAUUGAGCAUCA
B19: chr8:80500255:80500365:+|CDS|ENSG00000205189|unk|FALSE|unique (ssRNA)
RNA: GGGAGUUCUACAGUCCGACGAUCGAAAAACCAAACUACAAAAAGAUUUAUUUAUAAUAUUCCACCUAAUAAUGAAACGAAUUUAGAAGAUUGCUCAGUAAUGCAGCCACCUGUUGCCUAUCCAGAAGAAAAUACACUACUCAUCAACAGAGGAUUGAGCAUCA
B20: chr8:132572308:132572480:-|CDS|ENSG00000129295|control|control|control (ssRNA)
RNA: GGGAGUUCUACAGUCCGACGAUCGCACAUGGAGAAACUAGAAGUAGACCCUAGCAAGCACUCAUUCCCUGAUGUGACUAACAUAGUUCAAGAGAAAAAACACACACCCAGAAGACGACCUGAACCCAAAAUUAUACCAAGUGACAACAGAGGAUUGAGCAUCA
B21: chr17:29575287:29575470:-|CDS|ENSG00000108262|control|control|control (ssRNA)
RNA: GGGAGUUCUACAGUCCGACGAUCUCUAGAGCUGGGCAAAGAGGAAGACUUCCACCCAGAGCUGGAAAGCCUGGAUGGAGACCUAGAUCCUGGGCUUCCCAGCACAGAGGAUGUCAUCUUGAAGACAGAGCAGGUCACCAAGAACAACAGAGGAUUGAGCAUCA
B22: chr4:56502255:56502306:+|3pUTR|ENSG00000174780|msi1_unk|FALSE|overlapping (ssRNA)
RNA: GGGAGUUCUACAGUCCGACGAUCAUUUCAGCUGGAGUCUGAAGAUACUUGUUUCUGUUCAAGUCCCACUUUAAAUUAUGUCUUAGGAGACUGAAAGUGGAAUCUUCUGAGCAUUCCUAAAUAUCUGCUUAGAAAUAUCAUGUGCAACAGAGGAUUGAGCAUCA

What follows are binders tested against MSI1 full-length (mouse, UniProt Q61474 1-362) (assay: nsRBNS (natural sequence RNA bind-n-seq); RBNS binding buffer (assumed for nsRBNS): 25 mM Tris pH 7.5, 150 mM KCl, 3 mM MgCl2, 0.01% Triton X-100, 500 ug/ml BSA, 20 U/ml SUPERase-In, 4 C; UNK is unkempt and MSI1 is Musashi-1; names of the RNAs are library labels; protein concentration not given here; high values mean tight binding).
UniProt Q61474, sequence (Q61474 whole entry): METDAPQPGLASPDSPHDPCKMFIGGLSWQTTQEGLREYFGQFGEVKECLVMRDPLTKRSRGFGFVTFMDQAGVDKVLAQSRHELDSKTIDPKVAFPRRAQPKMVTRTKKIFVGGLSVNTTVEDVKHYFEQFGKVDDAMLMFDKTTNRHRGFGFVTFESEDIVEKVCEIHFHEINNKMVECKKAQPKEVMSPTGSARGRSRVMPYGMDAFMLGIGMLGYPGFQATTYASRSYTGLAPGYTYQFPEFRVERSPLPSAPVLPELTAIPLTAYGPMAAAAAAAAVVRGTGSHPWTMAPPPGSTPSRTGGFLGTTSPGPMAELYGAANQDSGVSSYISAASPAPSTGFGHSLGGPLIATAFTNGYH
Work on B1 yielded a binding signal of 0.326 enrichment R. B2 gave a binding signal of 0.436 enrichment R. B3 was tested, and the binding signal was 0.555 enrichment R. For B4, the binding signal was 1.7 enrichment R. Work on B5 yielded a binding signal of 2.54 enrichment R. B6 was tested, and the binding signal was 0.445 enrichment R. B7 gave a binding signal of 0.629 enrichment R. With B8 the binding signal was 0.658 enrichment R. B9 gave a binding signal of 30 enrichment R. With B10 the binding signal was 0.966 enrichment R. Binder B11 has a binding signal of 0.213 enrichment R. B12 showed a binding signal of 13.4 enrichment R. B13 gave a binding signal of 11 enrichment R. B14 showed a binding signal of 16.5 enrichment R. B15 showed a binding signal of 5.03 enrichment R. B16 gave a binding signal of 0.836 enrichment R. Binder B17 has a binding signal of 1.18 enrichment R. B18 gave a binding signal of 37 enrichment R. B19 was tested, and the binding signal was 13.6 enrichment R. B20 showed a binding signal of 7.86 enrichment R. In the case of B21, the binding signal is reported as 0.357 enrichment R. In the case of B22, the binding signal is reported as 2.1 enrichment R.

From article PMC12136788
